In ChEMBL document CHEMBL1157539, “Thousands of chemical starting points for antimalarial lead identification” (Nature, 2010):
In all, about 13,000 compounds were measured (“IFI”: median about 4, highest 2% from about 17 on). This is one part of the list.

experiment: GSK_TCMDC: Inhibition Frequency Index (IFI). The number of non-kinase HTS assays where a compound showed > 50 % inhibition, expressed as a percentage of the number of such assays in which the compound was tested (-0 is zero); type: functional

First: CCOc1cc(NCCCNc2ncc([N+](=O)[O-])cc2C)nc2ccccc12
Second: O=c1cc(NCCCNCc2cc(Br)ccc2F)[nH]c2ccccc12
The IFI of the first is higher: 4.29% for the first, 1.44% for the second.

Going from `CCN(CCCN1CCCCC1)c1cc(C)nc(Nc2cc(Br)ccc2C)n1` to `CCCN(CCC)CCCN(CCCN(CCC)CCC)c1cc(C)nc(Nc2ccc(Cl)cc2)n1`, the IFI rises from 6.33% to 6.52%.

Compared with `CS(=O)(=O)NCCCNCc1cccc(-c2cccc(-c3nc4cc(F)ccc4[nH]3)c2)c1`, `CC(CN(C)C)C(=O)Nc1cccc(-c2ccc(-c3nc4cc(F)ccc4[nH]3)cc2)c1` (configuration not stated) is higher in IFI: 2% for the first, 8.04% for the second.

Going from `C=CCOC(=O)N1CCC(CNCc2cccc(-c3ccc(-c4nc5ccccc5[nH]4)s3)c2)C1` (configuration not stated) to `O=C(NC1CCN(Cc2cccc(C(F)(F)F)c2)CC1)c1ccc(-c2cccc(Cl)c2)s1`, the IFI rises from 6.73% to 10.9%.

Compared with `CN(C)CCNC(=O)N1CCCN(c2ncnc3cc(-c4ccccc4)sc23)CC1`, `CN1CCN(c2ncnc3ccc(NC(=O)Nc4ccc(Cl)c(Cl)c4)cc23)CC1` is higher in IFI: 2.04% for the first, 4.55% for the second.

Compared with `CC(=O)COc1c(C2CCN(CCCCNC(=O)c3ccc(-c4ccc(C(F)(F)F)cc4)cc3)CC2)ccc2c1CCCC2`, `Cc1ccc(CN2CCC(Oc3cccc(NC(=O)c4ccc(C(F)(F)F)cc4)c3)CC2)cc1` is higher in IFI: 11.6% for the first, 11.7% for the second.

Compared with `O=[N+]([O-])c1ccc(C(O)CNCCc2ccccc2)cc1OCc1ccccc1` (configuration not stated), `COc1ccccc1CCNc1ncc(F)c(N[C@@H](Cc2ccccc2)C(=O)NCCc2ccccc2)n1` is lower in IFI: 4.8% for the first, 2.78% for the second.

Compared with `O=C(NC1CC1)c1ccc(N2CCC(Cc3ccccc3)CC2)c([N+](=O)[O-])c1`, `CC1CCN(CC[C@H]2CCCN2S(=O)(=O)c2cccc(NC(=O)c3ccc(-c4ccccc4)cc3)c2)CC1` is higher in IFI: 4.86% for the first, 6.92% for the second.

Going from `C=C[C@H]1CN(CCCCCCC)CC[C@H]1C[C@@H](Cc1ccnc2ccc(OC)cc12)OC(=O)[C@](OC)(c1ccccc1)C(F)(F)F` to `COc1ccc(Nc2nccc(N3CCC(NC(=O)Nc4cccc(C(C)=O)c4)C3)n2)cc1` (configuration not stated), the IFI falls from 5.26% to 0%.

Going from `CNC(=O)c1cnc(Nc2ccc(N3CCN(C)CC3)cc2)nc1Nc1ccccc1OC` to `CN1CCN(c2ccnc3ccc(NC(=O)Nc4cccc5ccccc45)cc23)CC1`, the IFI falls from 6.67% to 1.48%.

Compared with `CCC(C)NC(=O)Nc1cccc(-c2cccc(-c3nc4cccc(C)c4[nH]3)c2)c1` (configuration not stated), `Cc1cccc2nc(-c3cccc(-c4cccc(NC(=O)CC5NC(=O)c6ccccc65)c4)c3)[nH]c12` (configuration not stated) is higher in IFI: 2.94% for the first, 3.64% for the second.

First: N=C(N)Nc1nc(-c2cccc(NCCCCCCCCON3C(N)=NC(N)=NC34CCCCC4)c2)cs1
Second: N=C(N)Nc1nc(-c2cccc(NC(=O)C(F)(F)F)c2)cs1
The IFI of the first is higher: 9.86% for the first, 1.45% for the second.

Compared with `Cc1cnc(CN(Cc2ccc(-c3ccc(CNCCc4ccc(S(C)(=O)=O)cc4)cn3)cc2)C(=O)c2ccc([N+](=O)[O-])c(C)c2)cn1`, `COc1ccc(CNCc2ccc(-c3ccc(-c4nc5cccc(C)c5[nH]4)cc3)cc2)cc1` is higher in IFI: 2.13% for the first, 13.1% for the second.

Compared with `Cc1ccc(CNc2ccc3ncc(-c4cccc(C(=O)NCCN(C)C)c4)n3n2)c(C)c1`, `NCCC(=O)Nc1ccc(-c2cnc3[nH]cc(-c4ccc(C(=O)O)cc4)c3c2)cn1` is lower in IFI: 12.6% for the first, 3.23% for the second.

Compared with `CCCCCN1C(=O)C(c2ccccc2)(c2ccccc2)N=C1N`, `Nc1nc(N)c2c(Cl)c(N(Cc3ccccc3)Cc3ccccc3)ccc2n1` is lower in IFI: 4% for the first, 2.17% for the second.

Going from `O=S(=O)(Nc1ccc(CCN2CCC(N3CCCCC3)CC2)cc1)c1ccc2ccccc2c1` to `Cc1ccc(Cn2c(N3CCC(C(=O)NCc4cccs4)CC3)nc3ccccc32)cc1`, the IFI falls from 12.7% to 3.96%.

Compared with `COc1ccccc1CCNc1nc(C)cc(N[C@@H](Cc2ccccc2)C(=O)Nc2ccccc2)n1`, `COc1ccc(CCNc2nc(SCc3ccccc3Cl)nc3ccccc23)cc1OC` is lower in IFI: 13.6% for the first, 2.21% for the second.

Going from `Cc1cccc(-c2ccc(CNC3CCN(CC4Cn5c(=O)ccc6ccc(F)c4c65)CC3)cn2)c1` (configuration not stated) to `CN(C)Cc1ccc(CNC2CCN(Cc3ccccc3Cl)CC2)cc1`, the IFI falls from 4.17% to 0.69%.

First: O=C(c1ccc(-c2ccc(Cl)cc2)o1)N1CCc2cc3nccc(N4CCN5CCC[C@H]5C4)c3cc21
Second: Cc1nc(-c2cccc3c(NC(=O)Nc4ccc5nccc(N6CCN(C)CC6)c5c4)cccc23)no1
The IFI of the first is higher: 8.89% for the first, 4.38% for the second.

Going from `Cc1cc(NC(=O)Nc2cccc(Cl)c2Cl)c2ccccc2n1` to `CNC(=O)/C=C/c1cc(NC(=O)Nc2ccnc3c(Br)cccc23)ccc1OC`, the IFI rises from 2.16% to 4.38%.

First: C[C@H](Cc1ccc(C[C@@H](C)NC[C@H](O)c2cccc(Cl)c2)cc1)NC[C@H](O)COc1ccccc1
Second: COc1cccc(CNC[C@@H](O)[C@H](Cc2ccccc2)NC(=O)c2cc(NC(C)C)cc(N3CCCCS3(=O)=O)c2)c1
The IFI of the first is higher: 7.91% for the first, 2.08% for the second.

Compared with `CC(C)(NCc1ncc[nH]1)c1nc(-c2ccc(Cl)c(O)c2)c(-c2ccncc2)[nH]1`, `COc1ccc(CNc2ncc(-c3ccsc3)c(-c3nccs3)n2)cc1OC` is higher in IFI: 1.48% for the first, 3.37% for the second.

First: CN(C)C(=S)N/N=C1/C(=O)Nc2ccc(OC(F)(F)F)cc21
Second: Cc1cc(=O)c2cc(Oc3cccc(OC(F)(F)F)c3)ccc2[nH]1
The IFI of the first is higher: 8.57% for the first, 2.63% for the second.

First: CCCCCCCCCc1c(C)[nH]c2ccccc2c1=O
Second: CCCCCCCCOc1ccc(N2C(N)=NC(N)=NC2(C)C)cc1
The IFI of the first is lower: 1.45% for the first, 8.39% for the second.

Compared with `COc1ccc(-c2ccc(NC(=O)c3ccc(C#N)cc3)cc2)cc1CNC(C)C`, `CN1CCN(c2cc(NC(=O)Nc3ccc(-c4ccncc4)c(Cl)c3)ccc2Br)CC1` is higher in IFI: 1.98% for the first, 5.84% for the second.

Compared with `O=C(N1CCN(c2cccc(C(F)(F)F)c2)CC1)C(Cl)(Cl)Cl`, `COc1cc2nc(N3CCN(C(=O)c4ccco4)CC3)nc(NCc3ccccc3)c2cc1OC` is higher in IFI: 1.42% for the first, 4% for the second.

Going from `Cc1[nH]c(C)c(-c2ccc(-c3ccc(OC(F)(F)F)cc3)nc2)c(=O)c1Cl` to `COc1cccc(OC(C)(C)c2nc(N[C@@H](C)c3ccccc3)c3cn[nH]c3n2)c1`, the IFI rises from 1.69% to 10.5%.

First: CN(C)CC(O)C(c1ccccc1)c1cccc(Br)c1 (configuration not stated)
Second: CCCCOC(=O)C1=C(C)NC2=C(C(=O)CCC2)C1c1ccc(OC)c(Br)c1 (configuration not stated)
The IFI of the first is lower: 0% for the first, 0.72% for the second.

Compound `CC(=O)Nc1ccc2[nH]cc(C3CCN(CC4CCC(NC(=O)/C=C/c5ccc(Cl)c(Cl)c5)CC4)CC3)c2n1` (configuration not stated) has an IFI of 0.71%.
